From a collection of fitness landscapes (doi:10.1016/j.celrep.2020.107928)
Whole data set: some 81,000 sequences, median “one-hybrid fitness for binding parS DNA” near -0.17, cut for the highest 2% near 0.51. The list shows a part of the results.

B1: Caulobacter ParB omega fusion; a variant is named by its letters at X, in order, B8GW30 (parent)
chain: MESVVVGEPGMSEGRRGLGRGLSALLGEVDAAPAQAPGEQLGGSREAPIEILQRNPDQPRRTFREEDLEDLSNSIREKGVLQPILVRPSPDTAGEYQIVAGERAWRAAQRAGLKTVPIMVRELDDLAVLEIGIIENVQRADLNVLEEALSYKVLMEKFERTQENIAQTIGKSXSHVANXMRLLXLPDEVQSYLVSGELTAXHARAIAAAADPVALAKQIIEGGLSVRETEALARKAPNLSAGKSKGGRPPRVKDTDTQALESDLSSVLGLDVSIDHRGSTGTLTITYATLEQLDDLCNRLTRGI

Variants of: B1
Assay: one-hybrid fitness for binding parS DNA (scaled: cognate 1, non-cognate 0); higher = stronger binding
Conditions: with parS DNA site
How it was run: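 Caulobacter ParB libraries with four specificity codons randomised were screened by bacterial one-hybrid selection in the E. coli USO strain, using a HIS3 reporter whose site lies 19 bp from the promoter. Selection ran for 48 hours at 37°C on M9 lacking histidine, with 0.1 mM IPTG and 5 mM 3-AT. Plasmids were Illumina-sequenced before and after selection, three replicate libraries were pooled, and variants with under 10 reads were dropped. Fitness is the log change in each variant's read ratio to wild type, rescaled against the cognate and non-cognate sites.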

one-hybrid fitness for binding parS DNA, 0.811:
RWKT

one-hybrid fitness for binding parS DNA, 0.39:
RIMN

one-hybrid fitness for binding parS DNA, 0.354:
RNDA

one-hybrid fitness for binding parS DNA, 0.349:
RFEY

one-hybrid fitness for binding parS DNA, 0.256:
RIDM

one-hybrid fitness for binding parS DNA, 0.84:
RRKN

one-hybrid fitness for binding parS DNA, 0.278:
RLGF

one-hybrid fitness for binding parS DNA, 0.669:
RRLC

one-hybrid fitness for binding parS DNA, 0.442:
RQLY

one-hybrid fitness for binding parS DNA, 0.357:
RFYN

one-hybrid fitness for binding parS DNA, ≤ 0.2:
APYT
VPLM
TCTR
CYMY
LINV
QVCC
CCAL
VHKG
RNVK
PDEY
ARRT
QYKH
ARHD
IARF
ERRG
FIVI
PGCS
AVMC
APPN
QFNN
VSLP
PTYT
WFNG
WRYW
WKDS
QNGE
MHTF
KVDP
WCDC
ESGC
SVKC
EYAY
SMLH
RDAS
CMPC
HDQR
WSYE
DHHT
IIGA
YRIC
NGAK
HKPG
VDIR
LKRF
DIKV
FGRT
PGGW
FHVS
LIMC
AECC
YTTI
VNAW
EHMS
ESAG
GHTW
VQMS
QSFN
DHKG
FSDS
EFIS
IRSM
HIFS
HMQC
HYSV
LCDR
DTWL
CVSD
VTTW
QFQY
QYNR
WFAC
SRST
LEYR
HRMA
LMTD
MDQW
GYQL
NYDS
FVCG
QPML
SPRF
PANK
AMPY
HTTA
NVPS
LRSA
KMMT
HQKS
IHHR
ICTG
TPIT
VRRR
WWMS
LAMN
QLAT
CSEP
QVPY
HHFR
QAAM
GLLT
QEYC
QRQR
FLPT
HSSG
NERG
AGAA
PYHN
ATVA
SGKT
SHTS
RPQP
HKPW
TIRS
SACI
MTAL
PRIR
RDSC
THQV
ANSN
SHIE
TKMS
HPGY
CGFS
YCAT
AESL
HTPI
HAQD
VRNW
QSVA
NQPK
LTII
HNPD
GGSI
INRG
PGRV
WLVP
QHCT
NYSL
TKSD
LVPH
HALD
CLNG
TDPD
FLII
GILL
YTRR
HTLR
QYVA
STNL
SCSG
QGTK
NLTV
KLYR
RWHP
HAAE
MEGR
LMFG
KVKL
IITR
RRLF
KGSG
PNHY
HSCY
GLGS
CSDT
PQSF
KWAL
QRCQ
HLGA
PADC
TPQA
AGDV
PDCS
GGWG
RHVM
EHNI
DDVN
LSLP
TWVG
SPCG
IFPS
NTVC
HHHT
YTNV
GARN
DTSL
TLWR
QGSY
PHYE
YYHS
AFRC
PHQA
DACM
HDKY
MQRN
ITAG
PNHN
QQAW
CFAY
ESQS
KVGS
NMKS
CCLD
LAMT
YMKR
EAKS
ISIM
KEQG
KHAD
RNYD
STDV
QHTL
SARR
QTWE
QGRM
ADMG
RHTH
GRWR
NTND
FRWG
SLPT
TPVG
LAFC
AIDR
ALHG
ISAS
PDYC
AVSR
WQAV
YTDT
NCPM
EHTN
RKMV
TLVY
TRTH
SPLM
EMRY
WQWG
MSFM
HRIF
TEQR
RGEN
NCHA
VNGR
IGNR
GLKH
QTRE
LAAY
KVPC
PPKF
PVGN
DVTQ
DNGS
VVMM
QVWE
RTTQ
PNHA
TAAV
KPYC
EYRS
QQGP
WLYI
VNQC
MLSV
LYTH
WPEN
EAWS
QPLI
YYQG
TFQG
CYSC
WKNS
LTNT
TSVR
DAMN
AFHG
GTRR
QMYM
YGRV
QTGI
PFCG
DTAW
QPDN
TNPT
QGMR
QLHV
VKTP
KLEG
RRMQ
FTGL
CVAL
QSCM
VAFG
WYNA
VDNR
ARCI
